These results are taken from paper PMC6919601, “Identification of Plasmodium dipeptidyl aminopeptidase allosteric inhibitors by high throughput screening” (PLoS ONE, 2019).

Where “and” joins values, the source holds several entries; their conditions need not be identical. Equal entries are not always repeated. The whole screen tested about 110,000 compounds, of which about 230 (0.21%) showed an effect of 50% or more. The list shows a part of the results.
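Note: 30 min substrate incubation versus DMSO and 10 µM JCP410 controls.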

The target in the assay is DPAP1 (Plasmodium falciparum, UniProt Q8IIJ9). The assay is described as follows: primary screen, percent inhibition; read by cleavage of a fluorogenic dipeptide substrate; higher = more effect of the substance. The arrangement: species or system P. falciparum D10 trophozoite lysates; single well.
DPAP1, sequence (Q8IIJ9 whole entry, looked up): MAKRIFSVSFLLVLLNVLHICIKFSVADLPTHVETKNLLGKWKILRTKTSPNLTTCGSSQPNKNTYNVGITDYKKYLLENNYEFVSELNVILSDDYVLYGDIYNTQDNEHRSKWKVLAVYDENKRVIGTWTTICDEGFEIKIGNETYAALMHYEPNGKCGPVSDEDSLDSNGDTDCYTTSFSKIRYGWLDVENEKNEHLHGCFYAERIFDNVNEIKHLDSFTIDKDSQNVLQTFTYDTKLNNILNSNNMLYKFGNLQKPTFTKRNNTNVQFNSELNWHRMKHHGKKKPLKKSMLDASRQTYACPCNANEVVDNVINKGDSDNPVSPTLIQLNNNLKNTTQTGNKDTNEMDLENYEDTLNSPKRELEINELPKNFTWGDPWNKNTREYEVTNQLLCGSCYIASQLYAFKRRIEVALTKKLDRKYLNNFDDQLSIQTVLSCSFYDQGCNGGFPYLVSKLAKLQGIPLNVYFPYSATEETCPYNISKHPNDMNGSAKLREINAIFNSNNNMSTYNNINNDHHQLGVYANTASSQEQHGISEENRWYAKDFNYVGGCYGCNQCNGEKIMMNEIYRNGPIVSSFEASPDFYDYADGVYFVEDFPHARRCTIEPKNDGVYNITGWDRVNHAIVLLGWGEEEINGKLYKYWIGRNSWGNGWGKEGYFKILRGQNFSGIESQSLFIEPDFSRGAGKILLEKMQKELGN
As for `COc1ccccc1NC(=O)C1=C(C)NC(SC)=C(C#N)C1c1ccco1` (stereo not drawn), the “% Inhibition @ 10 uM” value amounted to 2.45%.

In the case of `Cc1cc(C)c2c(-n3cccc3)c(C(=O)N3CCC(C(=O)O)CC3)sc2n1`, the “% Inhibition @ 10 uM” value was determined as 1.63%.

Take `O=C1C=CC(=NS(=O)(=O)c2ccc(Cl)cc2)C=C1`: the “% Inhibition @ 10 uM” value is -5.63%.

As to `COc1ccc(OCCn2c(=N)n(C)c3ccccc32)cc1`, the “% Inhibition @ 10 uM” value was found to be 3.53%.

For `Cc1c2cnn(CC(=O)NCC(C)c3ccccc3)c(=O)c2c(C)n1Cc1ccccc1` (stereo not drawn), the “% Inhibition @ 10 uM” value is reported as -0.447%.

As for `Cc1cc(C)c(NC(=O)CN(C2CCCCC2)C2CCCCC2)c(C)c1`, the “% Inhibition @ 10 uM” value is on record as -0.415%.

Take `CC1(C)C=Cc2cc3ccccc3cc2O1`: the “% Inhibition @ 10 uM” value is recorded as -4.76%.

On to `N#CC(NC(=O)[C@H](CS(=O)(=O)Cc1ccccc1OC(F)F)NC(=O)N1CCOCC1)c1cccs1` (stereo partly drawn), for which the “% Inhibition @ 10 uM” value is -4.82%.

As for `CC(Oc1ccccc1Cl)C(=O)Nc1ccccc1C(N)=O` (stereo not drawn), the “% Inhibition @ 10 uM” value is 4.31% and -1.44%.

Take `Cc1ccc(C)n1-c1ccc(CC(=O)O)cc1`: the “% Inhibition @ 10 uM” value was -2.26%.

`COc1cccc(NC(=O)CN(c2cc(Cl)ccc2C)S(C)(=O)=O)c1`: the “% Inhibition @ 10 uM” value is -5.67%.

As for `Cc1ccc(C(C#N)NC(=O)C(CC(=O)N2CCOCC2)CS(=O)(=O)Cc2ccccc2)o1` (stereo not drawn), the “% Inhibition @ 10 uM” value was -3.49%.

Take `O=C(CSc1nc2ccccc2s1)Nc1ccc(F)c(F)c1`: the “% Inhibition @ 10 uM” value came to 1.8%.

Take `c1ccc(CNc2c3c(nc4ccccc24)CCC3)cc1`: the “% Inhibition @ 10 uM” value turned out to be 2.44%.

On to `CC(=O)c1ccc(NC(=O)Nc2sc(NS(=O)(=O)c3ccccc3)nc2C)cc1`, for which the “% Inhibition @ 10 uM” value was -3.78%.

Regarding `CCN1CCCC1CNC(=O)c1ccc2c(c1)sc1nc(-c3cccc(OC)c3)cn12` (stereo not drawn), the “% Inhibition @ 10 uM” value came out at 3.24%.

Regarding `O=[N+]([O-])c1ccc(CN2CCN(c3cccc(Cl)c3)CC2)cc1`, the “% Inhibition @ 10 uM” value was determined as 4.67%.

With `CCOc1ccc(C2CC(=O)n3nc(-c4cccc(C)c4)nc3S2)cc1` (stereo not drawn), the “% Inhibition @ 10 uM” value is given as -2.75%.

Consider `CC(C)C(C(=O)Nc1ccc(S(=O)(=O)Nc2nccs2)cc1)N1C(=O)c2ccccc2C1=O` (stereo not drawn), for which the “% Inhibition @ 10 uM” value is on record as 10%.

As to `O=C(c1ccccc1[N+](=O)[O-])N1CCN(c2ccccc2)CC1`, the “% Inhibition @ 10 uM” value was 3.95%.

Consider `OCCN1CCN(Cc2cccc(F)c2)CC1`, for which the “% Inhibition @ 10 uM” value is given as -1.62%.

`COc1cccc(N2CCN(C3CC(=O)N(c4cccc(OC)c4)C3=O)CC2)c1` (stereo not drawn): the “% Inhibition @ 10 uM” value is -1.22%.

For the molecule `COc1ccc(CN2CCN(C(C)C)CC2)c(OC)c1`, the “% Inhibition @ 10 uM” value is recorded as 3.06%.

As to `COc1cc2c(cc1OC)C(Cc1ccccc1)=NC(C)(C)C2`, the “% Inhibition @ 10 uM” value is reported as -4.18%.

Turning to `OCC(O)Cn1c2ccc(Cl)cc2c2cc(Cl)ccc21` (stereo not drawn), the “% Inhibition @ 10 uM” value is reported as -1.97%.

Take `O=C1c2ccccc2-c2c1cccc2C(=O)N(CCO)CCO`: the “% Inhibition @ 10 uM” value came to 0.291%.

Take `CC1=C(c2ccc(C)cc2)S(=O)(=O)N=C1N1CCCCC1C` (stereo not drawn): the “% Inhibition @ 10 uM” value turned out to be 5.42%.
